Laboratory results published in PMC12136788.
Positions count from the first letter of the chain named. The list shows a part of the results.

B1: chr7:118215213:118215214:-_ENSMUSG00000005610_ENSMUST00000162415|mus_mus|FALSE|FALSE (ssRNA)
RNA: GGGAGUUCUACAGUCCGACGAUCAAGCUUAUUCCUUAGGUGCUUAGAAAGCAGAGCCAAAGAGUUGACACAAGGUCUGUAAUAGUAAAGGUCAGAUUAAGUUGACAGUUUGCAUUAGAUUGAUAGGGAAUAGUUCUGAGGUGACAACAGAGGAUUGAGCAUCA
B2: chr7:7679991:7679992:-_ENSG00000106399_ENST00000396682|hu_hu|hu_hu_hu_mus_False|28_98 (ssRNA)
RNA: GGGAGUUCUACAGUCCGACGAUCUGGGAUGAAUCUUUUCCAGCCUCCCCACGAAGCACACGGGCCGGUCGAUAUACUGUGGUAACAUGCUGGCGUUGACGCGCGCUCUGGGCAAGUGCAUUAUGUCCUCCAUGAUUCUGCCGCCAACAGAGGAUUGAGCAUCA
B3: chr7:135612788:135612789:-_ENSG00000105887_ENST00000393085|hu_hu|FALSE|FALSE (ssRNA)
RNA: GGGAGUUCUACAGUCCGACGAUCCAAGAGGUGAAAACAAAGGUAUCAAAACACCCUGUUGCACUACGUUGAUAGUUAUAGACUGAUAGAGUGCCCUCCAUUUUCAAUGAGGAUGUCUCCAUAUUUUAGUUCAGUGAUGUAAUACAACAGAGGAUUGAGCAUCA
B4: chr16:8621372:8621373:+_ENSMUSG00000057880_ENSMUST00000065987|mus_hu|FALSE|FALSE (ssRNA)
RNA: GGGAGUUCUACAGUCCGACGAUCGAUGCUACUUAGCUAUGGUUUUCUACCAUGAGCUUAUAUAUAGAUAGGUGUAGGUAUGUAGAUACAUUAAUGCUAUACACAAUUUUGCAUGGUUACUGAGCGUCAGUAAAAAUUAUGAAACAACAGAGGAUUGAGCAUCA
B5: chr19:45035288:45035289:+_ENSMUSG00000036097_ENSMUST00000096053|mus_mus|motif|central (ssRNA)
RNA: GGGAGUUCUACAGUCCGACGAUCAGUCUCCAGAGGAAACAAAGAUCCAAAACCAACGCCCAUGUUGAAGAAUACAGCUGCGGUAUCAGACAAAGAUGGGAUCCAGGGCCAAACUGGAGAGUCACUGAAAGUAUCAUUUCUAAUCAACAGAGGAUUGAGCAUCA
B6: chr1:84754351:84754352:-_ENSMUSG00000026219_ENSMUST00000027421|mus_mus|FALSE|FALSE (ssRNA)
RNA: GGGAGUUCUACAGUCCGACGAUCAGCAUGAUUUUUCAGAACAUCCUUCAGAAGUUCAGCAUCAGCAAAAUAAAUUAUCCUAAGAAUUGCUCUAAGGCACUUGUGUCUGACCGCAGGGCCUGCUGAGGAGCUGUACACUUCAUACAACAGAGGAUUGAGCAUCA
B7: chr1:59924863:59924864:+_ENSMUSG00000067336_ENSMUST00000087435|mus_hu|motif|central (ssRNA)
RNA: GGGAGUUCUACAGUCCGACGAUCGCUGCCAAAUUUUAGCCGGGGCUCUUUUGUUGAAUUUUUGGUGUUCAAAGGCAAACGGGUAGGUCUCUUGGGAAGGUUCUGCUGCUUGGGGAGAGGAUAGAUCUGAGUAGGCAGAACAUCCAACAGAGGAUUGAGCAUCA
B8: chr5:137527996:137527997:-_ENSG00000094880_ENST00000394886|hu_mus|FALSE|FALSE (ssRNA)
RNA: GGGAGUUCUACAGUCCGACGAUCUUCUCCUAAGGCAACCAGCAUGCGAGAAUCAUUGGGACGAAGCUGGUGGGCCCGUCUAUAAUAAUAAAGGCAAUAAAAUGGCAUUUUAAGGAUUUCGUAAGUCUGCCCAAGGCCAUACCACAACAGAGGAUUGAGCAUCA
B9: chr4:17845017:17845018:+_ENSG00000109805_ENST00000514176|hu_mus|hu_hu_hu_mus_False|38_78 (ssRNA)
RNA: GGGAGUUCUACAGUCCGACGAUCGCUCUCUUAACUUGUAUCUUCAUUAAGGAACUCGCAAGGUUAAAGUUUACUUUUCUGUAGCGCAGCUGUUUUGCUCGUCUUGGGUAAUCUCAUCUUCAUUUCUGAUGGUGGUUCAUGAUCCAACAGAGGAUUGAGCAUCA
B10: chr16:94651144:94651145:+_ENSMUSG00000040785_ENSMUST00000117648|mus_hu|mus_mus_mus_hu_True|28_28 (ssRNA)
RNA: GGGAGUUCUACAGUCCGACGAUCAUUUUCUUGAAUCAAGUGGCGAAUAACAUAGUCCACUGCUUCAUUUAGAAAAUUUCUGCUAGAAAAACAGGUUGUAUAGUCUUCCGUGCUCAGAACUUUCCAAGAAAGCAAUUCUUUGAGCAACAGAGGAUUGAGCAUCA
B11: 235292066_235292186_125_5pUTR_ENSG00000173726_ENST00000366607|human|control|control (ssRNA)
RNA: GGGAGUUCUACAGUCCGACGAUCGGACCGCGAAGGAGCGGUGGGCCACGAACCCUCAGAGCGGUCGGCGCAGCUCACACCCGACGGCCGCGGGCCAGGAACACAGAAAGGCCGAGCACACGCCACUUCCGGUCCCAGUCAACUCAACAGAGGAUUGAGCAUCA
B12: chr12:69233606:69233607:+_ENSG00000135679_ENST00000462284|hu_mus|motif|central (ssRNA)
RNA: GGGAGUUCUACAGUCCGACGAUCCUAAUUUGGGGGUCAUAUAGUUAGAAAUAUAAAAUUCUAUUUUUGUGAGCAGGUCAGCGGGUUGAAGUAAGUUAGCACAAUCAUUUGGAUUGGCUGUCUGCACACUGGGCAGGGCUUGUUCAACAGAGGAUUGAGCAUCA
B13: chr2:179803060:179803061:+_ENSMUSG00000039086_ENSMUST00000041126|mus_hu|FALSE|FALSE (ssRNA)
RNA: GGGAGUUCUACAGUCCGACGAUCGUCUUAGAAAUGUAAAAAUUACUCAAGUUUCUCUAUAUAAAACCUUUACUUUUCAUUAGAAAGAACACAGUAAUGUAACUGGAUGUGACUUUCAGACAUCCCUAAAAGAAAAGAAAUGCUCAACAGAGGAUUGAGCAUCA
B14: chr7:7612872:7612873:+_ENSG00000164654_ENST00000405785|hu_mus|FALSE|FALSE (ssRNA)
RNA: GGGAGUUCUACAGUCCGACGAUCCUUUGUCAAGGGCUUUGGUUGUUCAGUCAAAGUCAAAACUGGCUUCUCAAAUUUUCUAAGAUCCCAUAUUGCAACCUGACCUUCAUAGAAGGAAGCAACACGAUCGUGGAAGUAAGGGUCCAACAGAGGAUUGAGCAUCA
B15: chr7:54823571:54823572:-_ENSG00000132432_ENST00000352861|hu_mus|hu_hu_hu_mus_False|48_98 (ssRNA)
RNA: GGGAGUUCUACAGUCCGACGAUCUCCCAUGAUAGCAAAUCCUAUUGCUGUAGCCAUGGCAAUCUUCUGGAAUUCUUUUCUGUCGGGUUUAGUGCAUCUUUUAACCAGCCGAAUUGAGUCCUUUACAAACUGCCGGCUGGGCUCCAACAGAGGAUUGAGCAUCA
B16: 30602309_30602429_1961_3pUTR_ENSG00000107951_ENST00000263063|human|control|control (ssRNA)
RNA: GGGAGUUCUACAGUCCGACGAUCCGCCACACUCCACAGCUGAUGUUUUAAUAAAGUGCCACUGAGUAUCAGACUGAUCAAACUGAAAACAUCCCAGAACUUCAGACCAGGUUAAGGGGGCCAAUGAGAAGAUCAUGAAAAGUGCAACAGAGGAUUGAGCAUCA
B17: chr17:48772226:48772227:-_ENSG00000154945_ENST00000285243|hu_hu|FALSE|FALSE (ssRNA)
RNA: GGGAGUUCUACAGUCCGACGAUCUAAGAUCAAACAAUUUGUUUACAAAAGCAACAGAUUUCAGAAUUGUGUAAAAAUCCUAAUAAUUUCAAAAUAACCUUUAUUUUUGAUACAAAAAUAAAGAUGCUAACUCCUUUAGCUCAGCAACAGAGGAUUGAGCAUCA
B18: 44118978_44121375_326_CDS_ENSG00000066135_ENST00000372396|human|control|control (ssRNA)
RNA: GGGAGUUCUACAGUCCGACGAUCCUGAGUAAAGAGGCCAGACUGCCCCGUCACCAGCUGUUGAAUGGGGGCAGGAAUGACCAAAUCAUCAAUGUCAUCAUAGGAUGCUCGUGGCUUCCACUCUUUUGGAGGAACAACCUUGGCCAACAGAGGAUUGAGCAUCA
B19: 44041996_44042116_73_3pUTR_ENSMUSG00000034342_ENSMUST00000037644|mouse|control|control (ssRNA)
RNA: GGGAGUUCUACAGUCCGACGAUCUCGGCCGCGAGCGAGGGAAUGGAGCCGGGCGAGAAGGAGGGGCCUCUCCGGCAACCACCGCCGGCGCUCGCAGCCCAGGGAGUGAGAGGGAGGCGCCCGCCCUGAGGCGCGCCCCUGCGCCAACAGAGGAUUGAGCAUCA
B20: chr6:170626544:170626545:+_ENSG00000112584_ENST00000537664|hu_mus|FALSE|FALSE (ssRNA)
RNA: GGGAGUUCUACAGUCCGACGAUCUAGGCGUACAUCCAGGGUACUUGUUUCGGUGACGCUCUGCCAGCUCGUGGAUAUUGACUAUGGUACAUAUGUGUGGGCACGUACUCCCCACAAACCCCUGCAAACCUCUUACACCCAUAACAACAGAGGAUUGAGCAUCA
B21: chr5:137527996:137527997:-_ENSG00000094880_ENST00000394886|hu_hu|motif|central (ssRNA)
RNA: B8 RNA with G33A, A60U, U80G, A81G, A96G, U108C, G120A, A123G, A132G
B22: chr4:115894766:115894767:+_ENSMUSG00000028698_ENSMUST00000030464|mus_hu|mus_mus_mus_hu_True|78_108 (ssRNA)
RNA: GGGAGUUCUACAGUCCGACGAUCUUCACACGGAAAUUGUACUUCGGGUUUUCCAACGCCAGUACAAAGUCCGGCCAAACUACCCGAACAGGGUCCUCCCCCUCUCUCCUACAGAACACAACAAAAUGCCCCCGAACUUUCAAGCAACAGAGGAUUGAGCAUCA

Molecular target: T1, UNK ZnF1-3 (human, UniProt Q9C0B0 31-174)
T1 sequence: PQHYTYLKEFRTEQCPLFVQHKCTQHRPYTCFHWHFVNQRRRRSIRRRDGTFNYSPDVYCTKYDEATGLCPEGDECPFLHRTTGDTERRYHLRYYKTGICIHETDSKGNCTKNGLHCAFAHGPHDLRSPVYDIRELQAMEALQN
Experiment: nsRBNS (natural sequence RNA bind-n-seq); RBNS binding buffer (assumed for nsRBNS): 25 mM Tris pH 7.5, 150 mM KCl, 3 mM MgCl2, 0.01% Triton X-100, 500 ug/ml BSA, 20 U/ml SUPERase-In, 4 C; UNK is unkempt and MSI1 is Musashi-1; names of the RNAs are library labels; protein concentration not given here; high values mean tight binding

Binder | binding signal
B1 | 0.986 enrichment R
B2 | 0.746 enrichment R
B3 | 0.864 enrichment R
B4 | 0.892 enrichment R
B5 | 1.94 enrichment R
B6 | 2.18 enrichment R
B7 | 1.52 enrichment R
B8 | 1.06 enrichment R
B9 | 0.38 enrichment R
B10 | 0.492 enrichment R
B11 | 0.531 enrichment R
B12 | 1.58 enrichment R
B13 | 0.678 enrichment R
B14 | 0.757 enrichment R
B15 | 0.582 enrichment R
B16 | 2.32 enrichment R
B17 | 1.23 enrichment R
B18 | 1.06 enrichment R
B19 | 0.497 enrichment R
B20 | 1.05 enrichment R
B21 | 1.24 enrichment R
B22 | 0.951 enrichment R
